According to the supplement of paper PMC4466236:
Over roughly 33,000 sequences, “E-score (dimensionless, -0.5 to 0.5)” has its median near -0.058; the highest 2% begin near 0.35. The list shows a part of the results.

Tested on: MvaT
Assay: PBM 8-mer E-score (mean of HK and ME arrays) (E-score (dimensionless, -0.5 to 0.5)); higher = stronger relative binding preference; most listed sequences are background and not binding sites
Summary of the method: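 Reported values are rank-based E-scores, taken as the mean of two universal arrays and parsed with a custom script. Each 8-mer score falls between -0.5 and 0.5. The arrays, ME and HK, were double-stranded 60-mers with a constant 25-mer primer region and a variable 35-mer region covering all 8-mers. They were probed, by an earlier protocol, with full-length P. aeruginosa MvaT carrying an N-terminal glutathione S-transferase fusion.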

Row | Sequence | PBM 8-mer E-score
1 | CAAACGGC | -0.0341
2 | AATAGCGG | 0.153
3 | GAGTATTA | 0.269
4 | CCTTCGTC | -0.332
5 | CTCCGCCC | -0.181
6 | GCAGAGTA | -0.0809
7 | GAGATTGC | -0.00565
8 | AGCGTAGC | -0.267
9 | AAAAGGAC | -0.0105
10 | AACCACTG | -0.0219
11 | ACCGACCC | -0.194
12 | GAGCCCGA | -0.213
13 | ACCGCAGT | -0.061
14 | AGCCCGCA | -0.172
15 | ACCTGAGA | -0.156
16 | CCCTCTAC | -0.296
17 | AATGATTC | 0.144
18 | AAATGCCG | 0.0241
19 | CCGAACCA | -0.0552
20 | TCGGAGCA | -0.0951
21 | CCTAAGGA | -0.238
22 | AGGCGACT | -0.197
23 | AGAAAGCG | -0.000845
24 | ACTTCGGA | -0.0627
25 | CCCTATGC | -0.147

Row | Sequence | PBM 8-mer E-score
26 | CTTACTCC | -0.122
27 | ATGGGTAA | 0.103
28 | GTGGCAAC | -0.0649
29 | ACTCCCCA | -0.296
30 | AGTGTCTA | 0.101
31 | CCGCCCCA | -0.285
32 | CGTAATCA | 0.0215
33 | ACTTACAA | 0.307
34 | AAGAGTAA | 0.137
35 | ATTCCTCG | 0.173
36 | AACCGTAT | -0.00352
37 | CAACACCG | -0.0186
38 | CTATAGTC | -0.0729
39 | TAGTAAGA | 0.135
40 | ATAATAAG | 0.43
41 | CTCGCCCC | -0.0975
42 | GTGTTGTA | 0.187
43 | CAACACCC | -0.0758
44 | CGGCGGTC | -0.246
45 | CCTCACTC | -0.172
46 | AGGCTAAC | 0.0586
47 | GGACATAA | 0.167
48 | AGCACCCC | -0.116
49 | AACAAGTC | -0.056
50 | AAGACATA | 0.152

Row | Sequence | PBM 8-mer E-score
51 | CTCGGGGA | -0.116
52 | CTCCAGAA | -0.0856
53 | ACATCTAT | 0.174
54 | CTCGCAAG | -0.0341
55 | AGTATTAA | 0.328
56 | CAACTGAA | -0.0474
57 | ATGGGGCA | -0.082
58 | GGAGATCA | -0.201
59 | ACCCAGGC | -0.124
60 | CCGCCGAA | -0.202
61 | CGCGGGAA | -0.0121
62 | GTGAGTTA | 0.183
63 | AGTGATGA | 0.0836
64 | CGATATCC | -0.116
65 | AATGAGCG | -0.154
66 | GCTTAAAA | 0.242
67 | CATTTCCA | 0.146
68 | ATACTGCC | 0.0135
69 | AATTGGTG | 0.0491
70 | GCGTCCAC | -0.233
71 | ACGGCGTC | -0.362
72 | CGTATAAC | 0.113
73 | GTCAGGAA | 0.000934
74 | CAGTGTCC | -0.176
75 | CCACCTTA | 0.0795

Row | Sequence | PBM 8-mer E-score
76 | ATAGCTTG | 0.0257
77 | ACGCTGAT | 0.00581
78 | AACCGGCT | -0.148
79 | GTAAAATA | 0.345
80 | TCGAAAGA | 0.00721
81 | CCCAATGA | -0.117
82 | AAGGTGCT | -0.249
83 | CTAAGCAC | -0.0271
84 | GACTAGGC | -0.202
85 | ACGCGTAG | -0.103
86 | CATCACGG | -0.174
87 | CTCCATCC | -0.207
88 | GGTATGGA | -0.235
89 | AACAACCA | -0.0408
90 | AACTGACC | -0.0356
91 | CGATGTAA | 0.0178
92 | GGATCTAC | -0.223
93 | ATACAAGA | 0.18
94 | AATGCGAC | -0.0226
95 | CACGGGAC | -0.284
96 | GCCCAAGC | -0.3
97 | AAAACTTG | 0.1
98 | GCAGCCGC | -0.189
99 | CTAAATTA | 0.336
100 | AGTAGCGC | -0.0583

Row | Sequence | PBM 8-mer E-score
101 | GCTTGGAC | -0.25
102 | GGTCGCCA | -0.174
103 | TAGAATCA | 0.0466
104 | ACTAGTGA | 0.0222
105 | ATTAACCC | 0.18
106 | CCATCCTA | -0.256
107 | CGGGCCAC | -0.225
108 | CCCATGTC | -0.158
109 | CTCCCTTA | -0.0814
110 | AAACTCTG | 0.0986
111 | CGGGCACC | -0.301
112 | AAAAGTTC | 0.277
113 | ATTTTCTA | 0.255
114 | GGTACCAA | -0.0846
115 | ATGACCGA | -0.0443
116 | CTACCCGA | -0.0766
117 | AGAGGCGG | -0.277
118 | TAGTGAAA | 0.125
119 | CGTACTAG | -0.108
120 | GGACCTTA | -0.19
121 | CCCTAGGC | -0.156
122 | AACTGATA | 0.267
123 | CTGCAACC | -0.105
124 | CATTTGAA | 0.125
125 | CTCTCCGC | -0.188

Row | Sequence | PBM 8-mer E-score
126 | GTACTTTA | 0.342
127 | CCCAGCCG | -0.12
128 | CACTGTCC | -0.0749
129 | GCCGAGCC | -0.217
130 | ACACTCGA | -0.0421
131 | GTTAGTTA | 0.302
132 | AATAGATG | 0.172
133 | CGTGCTGC | -0.174
134 | AGTGAGAT | -0.00921
135 | AATTGATC | 0.241
136 | AGTCCCCG | -0.246
137 | GCCCACTA | -0.131
138 | AGCCTATA | 0.179
139 | CCGCTGGC | -0.215
140 | GAAACACC | 0.0519
141 | CATAAGGG | -0.214
142 | AGAGCACT | -0.171
143 | CGGGTATA | 0.0683
144 | AGGGTCGG | -0.241
145 | CGCAAGTC | -0.135
146 | AGTGTATC | 0.102
147 | CCCTTGCG | -0.299
148 | ATGCGTAA | 0.108
149 | TATACCCA | 0.157
150 | CGTCGGAC | -0.179

Row | Sequence | PBM 8-mer E-score
151 | AAGCGACC | -0.0307
152 | TACAGGGA | -0.0432
153 | GGAGGACA | -0.279
154 | ATGCTTCA | -0.1
155 | AATGGCAT | 0.117
156 | AATACTGA | 0.251
157 | AACGACCA | -0.102
158 | GGGGGCTA | -0.25
159 | AGAACTGG | -0.194
160 | GGACCAGA | -0.128
161 | ACTTTCTA | 0.246
162 | GAAACAAC | 0.136
163 | CGAGCTGC | -0.186
164 | TAAGACCA | 0.0406
165 | ACATACGG | 0.019
166 | CTCCACCA | -0.177
167 | GGTCTAAA | 0.021
168 | AAAAGGGC | -0.112
169 | AGGTAGAA | 0.0321
170 | GCACGGAA | -0.0471
171 | GCGCATCA | -0.069
172 | CGAGTTGA | -0.0135
